Source: publication PMC4336329 (PLoS ONE, 2015)
Among all 310,000 compounds or so, about 14,000 (4.5%) showed an effect of 50% or more. Effects have a minus sign here. Some of the results follow.

What follows are compounds tested against human ether-à-go-go-related gene (hERG) potassium channel (human, UniProt Q12809) (assay: primary screen, population patch clamp on CHO cells stably expressing hERG).
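Also: peak tail current of the secondary pulse compared with the same well before compound.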

Sequence of human ether-à-go-go-related gene (hERG) potassium channel (Q12809 whole entry, looked up): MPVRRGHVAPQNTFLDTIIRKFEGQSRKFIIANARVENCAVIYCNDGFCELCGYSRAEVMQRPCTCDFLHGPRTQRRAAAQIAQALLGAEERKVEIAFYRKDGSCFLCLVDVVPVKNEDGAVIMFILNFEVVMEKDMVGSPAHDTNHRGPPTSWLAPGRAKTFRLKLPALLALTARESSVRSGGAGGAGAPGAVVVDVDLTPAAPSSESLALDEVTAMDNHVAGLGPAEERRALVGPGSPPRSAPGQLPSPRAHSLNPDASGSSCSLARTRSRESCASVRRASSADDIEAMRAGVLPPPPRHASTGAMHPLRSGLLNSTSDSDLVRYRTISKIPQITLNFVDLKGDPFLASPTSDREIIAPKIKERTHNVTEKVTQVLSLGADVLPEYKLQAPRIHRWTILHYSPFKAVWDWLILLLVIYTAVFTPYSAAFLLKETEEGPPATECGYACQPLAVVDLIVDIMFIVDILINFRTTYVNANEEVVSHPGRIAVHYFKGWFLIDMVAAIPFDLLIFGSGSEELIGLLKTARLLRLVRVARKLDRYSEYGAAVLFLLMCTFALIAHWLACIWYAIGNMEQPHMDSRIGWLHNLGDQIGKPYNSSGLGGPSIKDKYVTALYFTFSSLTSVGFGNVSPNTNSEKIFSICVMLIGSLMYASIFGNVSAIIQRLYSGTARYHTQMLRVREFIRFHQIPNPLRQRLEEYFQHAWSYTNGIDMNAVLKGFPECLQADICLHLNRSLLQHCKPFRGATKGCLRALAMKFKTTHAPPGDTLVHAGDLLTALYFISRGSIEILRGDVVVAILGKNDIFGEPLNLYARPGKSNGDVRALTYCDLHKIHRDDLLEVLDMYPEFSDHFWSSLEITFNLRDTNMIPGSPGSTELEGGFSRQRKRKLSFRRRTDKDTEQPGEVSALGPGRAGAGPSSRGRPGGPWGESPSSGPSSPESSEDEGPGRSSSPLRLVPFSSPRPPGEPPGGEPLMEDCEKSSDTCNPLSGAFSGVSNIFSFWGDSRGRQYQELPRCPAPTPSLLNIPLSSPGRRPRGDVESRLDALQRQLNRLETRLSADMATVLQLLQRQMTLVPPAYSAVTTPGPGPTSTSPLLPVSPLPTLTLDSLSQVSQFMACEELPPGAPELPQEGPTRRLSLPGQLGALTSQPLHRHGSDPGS

Compound	hERG current change (%, negative = inhibition) at 10uM
Cc1cc(C)c(/C=N/NC(=O)c2nnn(-c3nonc3N)c2COc2ccc(F)cc2)c(C)c1	2.94%
CCCCNC(=S)NNC(=O)c1cc(-c2cccnc2)nc2ccccc12	-7.41%
CC(=O)c1c(C)[nH]c(C(=O)Nc2ccc(Cl)c(S(=O)(=O)N3CCOCC3)c2)c1C	-0.577%
O=C(COC(=O)COc1ccccc1)NCCC1=CCCCC1	14.9%
CC1CCCN(S(=O)(=O)c2ccc(C(=O)Nc3ccccc3-c3nc4ccccc4[nH]3)cc2)C1 (centres unmarked)	0.964%
O=C(O)c1ccccc1NN=C1CCCCC1	12.7%
CNC(=S)Nc1ccc(Cc2ccncc2)cc1	6.78%
O=C(Nc1ncc(Cc2cccc(Cl)c2)s1)c1ccc([N+](=O)[O-])cc1	10.6%
CCOc1ccc(NC(=O)CCC(=O)NNC(=O)COc2ccc(C)cc2)cc1	16.1%
COc1ccccc1NS(=O)(=O)c1cc2c3c(c1)CC(=O)N3CCC2	-22%
CCOc1ccc2nc(NC(=O)CN3C(=O)NC4(CCCC4)C3=O)sc2c1	-11.8%
O=C(COc1ccc(Br)cc1)N1CCC(c2ccccc2)C1 (centres unmarked)	-45.2%
CC(=O)Nc1ccccc1OP1(=O)COc2ccccc2OC1	2.8%
O=c1oc2cc(O)ccc2c2oc3cc(O)ccc3c12	2.26%
O=C(N/N=C/C=C/c1ccc(Br)cc1)C(O)c1ccccc1 (centres unmarked)	3.34%
Cc1c(C(=O)NC2CCCCC2)oc2c1C(=O)CC(C)(C)C2	8.79%
COc1ccc(C(=O)O/N=C(\N)c2cccc(C)c2)cc1OC	16.3%
Nc1c2c(nn1-c1ccc(F)cc1)CSC2	5.37%
Cc1ccc(-c2nc3cc(N)ccc3o2)cc1Br	14.6%
CCCCC(=O)Nc1nc2ccc(C(=O)OC)cc2s1	2.24%
Cc1ccc(Cl)cc1NC(=O)CCCN1C(=O)c2cccnc2C1=O	-3.19%
O=C(O)CNC(=S)N(Cc1ccccc1Cl)C1CCCCC1	10.5%
COc1cc(C(=O)OCC(C)=O)cc(NC(=O)c2ccco2)c1OC	29.2%

Compound	hERG current change (%, negative = inhibition) at 10uM
Cc1cccc2sc(N(CCCN(C)C)C(=O)c3ccc(Cl)s3)nc12.Cl	-69.7%
Cc1cc(C(=O)N2CCCc3ccccc32)no1	1.44%
COc1ccc(C2N(c3ccc(C)cc3)CCN2c2ccc(C)cc2)cc1O	20.9%
CC(C)(C)c1ccc(S(=O)(=O)Nc2cccnc2)cc1	-6.96%
COc1cc(-c2nc3cnccc3n2C)cc(OC)c1OC	-26.9%
CCn1c(COc2ccc(=O)n(-c3ccccc3)n2)nnc1SCc1ccccc1	-48.2%
Cc1nc(N2CCN(C(=O)c3cnccn3)CC2)c2c3c(sc2n1)CC(C(C)(C)C)CC3 (centres unmarked)	-10.4%
O=C(NC1CCCCC1)c1ccc([N+](=O)[O-])o1	14.7%
O=C(O)CSC(C(=O)Nc1ccc(C(F)(F)F)cc1)c1ccccc1 (centres unmarked)	-1.32%
CCCc1c(C(=O)N/N=C/c2ccc(C)s2)nnn1-c1nonc1N	19.6%
O=C(NC(=S)N1CCOCC1)c1cn(-c2ccccc2)nc1-c1ccc(F)cc1	16.3%
CSc1ccc(C(=O)C2CCCN(C(=O)c3ccc4c(c3)no[n+]4[O-])C2)cc1 (centres unmarked)	-5.37%
O=c1[nH]c(N2CCc3ccccc3C2)nc2c1CCC2	-0.23%
CCC(C(=O)OC(C)C(=O)Nc1ccc(Cl)cn1)c1ccccc1 (centres unmarked)	0.842%
COc1ccc(NC2CCCN(C(=O)CCC3=NNC(=O)CC3)C2)cc1 (centres unmarked)	15.7%
CCn1c(SCCC(=O)Nc2ccccc2)nnc1-c1ccc(OC)cc1	4.86%
CCCOc1ccc(/C(O)=C2\C(=O)C(=O)N(CCCOC)C23C(=O)N(C)c2ccccc23)cc1 (centres unmarked)	20.7%
C=CCN1C(=O)S/C(=C/c2ccc(Sc3nc4ccccc4[nH]3)o2)C1=O	3.61%
O=C(Nc1ccc(C(=O)c2ccccc2)cc1)c1ccccc1	9.86%
O=C(NCc1ccco1)c1sc2ccccc2c1Cl	-9.84%
Cc1nn(CCCC(=O)NCc2ccc(Cl)cc2)c(C)c1[N+](=O)[O-]	-41.9%
CC(C)(C)NCc1ccc(OCc2cccs2)cc1.Cl	11.9%
O=[N+]([O-])c1ccc(N2CCCCC2)nc1	-3.2%

Compound	hERG current change (%, negative = inhibition) at 10uM
O=C(NC(=S)NCc1ccccc1)c1cccs1	7.8%
CCOC(=O)c1cccc(C2=CC(=O)C[C@H](c3ccc(OC)c(OC)c3)C2)c1	-26%
Cl.O=C(NCCCNC(=O)c1cncc(O)c1)c1cncc(O)c1	19%
Cc1cccc(C(=O)NN/C=C/C(=O)c2ccccc2)c1	-4.94%
CN(CC(=O)Nc1ccc(S(N)(=O)=O)cc1)C1CCCCC1	-1.84%
COCC(=O)Nc1ccc(S(=O)(=O)Nc2nccs2)cc1	6.17%
COc1ccc(NC(=O)CCNC(=O)c2ccco2)cc1S(=O)(=O)N(C)C	14.1%
CC(C)NC(=O)Cc1ccc(Br)cc1	3.92%
COc1ccc(CN2CC[C@@H](N3CCOCC3)[C@H](O)C2)cc1F	-8.02%
Cc1[nH]c2ccccc2c1/C=N/NC(=O)Cc1cccs1	6.95%
CCNc1ccc(C(=O)OCC(=O)NCCN2C(=O)CSC2=O)cc1[N+](=O)[O-]	-23.4%
O=C(CCCCCNS(=O)(=O)c1ccc(Br)cc1)NCCN1CCOCC1	-19.7%
COc1ccc(Cl)cc1NC(=O)COC(=O)CNC(=O)C1CCCCC1	9.87%
O=C1NC(c2cn(-c3ccccc3)nc2-c2cccs2)C(C(=O)c2cccnc2)C(O)(C(F)(F)F)N1 (centres unmarked)	5.79%
Cc1ccccc1CS(=O)(=O)CCC(=O)N1CCN(c2ccc(N3CCOCC3)nn2)CC1	-4.17%
Cc1ccc(S(=O)(=O)c2nnn3c2nc(N2CCOCC2)c2ccccc23)c(C)c1	-31.3%
N#CSCC(=O)N1c2ccccc2CCc2ccccc21	-24.3%
CCCC(c1nnnn1CCc1ccccc1)N1CCC(C(N)=O)CC1 (centres unmarked)	1.35%
COc1ccc(-n2c(=S)[nH]c3cc(C(=O)NCCCN4CCCC4=O)ccc3c2=O)cc1	15.3%
O=C(c1ccc(N2CCOCC2)c([N+](=O)[O-])c1)N1CCN(Cc2ccccc2)CC1	-66.9%
CN1/C(=C/C=C(C#N)C#N)C=Cc2ccccc21	11.5%
O=[N+]([O-])c1ccc(/C=N/NC2=NS(=O)(=O)c3ccccc32)cc1	-7.49%
CCOC(=O)c1ccc(Oc2nc(N(C)C)nc(N3CCOCC3)n2)cc1	-3.51%

Compound	hERG current change (%, negative = inhibition) at 10uM
O=C(Nc1ccc(Cl)cc1)c1cc(-c2cccs2)on1	24.6%
COc1ccc(S(=O)(=O)N(CC(=O)NC2CC2)c2ccc(C)cc2)cc1OC	14.7%
CC(=O)Nc1cccc(-c2nc3ccccc3c(=O)o2)c1	9.11%
CCNS(=O)(=O)c1c(C)cc(C)c(N(C)S(=O)(=O)c2ccccc2)c1C	-33.8%
COc1ccc(NC(=O)CNc2cccc(C#N)c2)cc1Cl	-1.89%
COc1ccc(-c2nnn(CC(=O)N(Cc3ccc(F)cc3)C(C(=O)NC3CCCC3)c3ccc(F)cc3)n2)cc1 (centres unmarked)	14.9%
Cc1ccc(Nc2cc(C)nc3nnnn23)cc1	0.981%
O=C(Nc1cccnc1Cl)c1cc(-c2ccccc2O)on1	-5.16%
CCCc1ccc(-c2csc(NC(=O)C3=COCCO3)n2)cc1	3.51%
CCOC(=O)C1(Cc2ccccc2Cl)CCN(C(=O)c2cnccn2)CC1	-20.2%
C#CCNC(=O)C1=C[C@H](c2cn(C(C)=O)c3ccccc23)C[C@H](OCc2ccc(CO)cc2)O1	-38.4%
Cc1c(C(=O)OCC(=O)N(C)c2ccccc2)oc2ccccc12	3.17%
CCN(C(=O)COC(=O)c1cc(S(=O)(=O)N2CCc3ccccc32)ccc1OC)C1CCS(=O)(=O)C1 (centres unmarked)	-16.3%
O=C(CCCOc1ccc(Cl)cc1Cl)NCC1CCCO1 (centres unmarked)	-9.76%
C(=C\c1ccccc1)/CSc1nc2ncccc2[nH]1	12.2%
O=C(Nc1cccc(C(=O)O)c1)/C(=C\c1ccc2c(c1)OCO2)NC(=O)c1ccc(Br)o1	5.52%
COc1ccc(-c2cc(C(F)(F)F)nc(SCC(=O)Nc3sc4c(c3C#N)CCC4)n2)cc1	13.6%
Cc1cc(C(=O)Nc2ccccc2)oc1C	7.57%
COCCNC(=O)C(=O)N/N=C(\C)CC(=O)Nc1cccnc1	8.89%
CC/C(=N\N=C(/CC)c1ccccc1N)c1ccccc1N	8.02%
